Measurements published in ChEMBL document CHEMBL4888484, “Replenishing the malaria drug discovery pipeline: Screening and hit evaluation of the MMV Hit Generation Library 1 (HGL1) against asexual blood stage Plasmodium falciparum ,using a nano luciferase reporter read-out” (2022).
Hit rate of the full screen: of about 150,000 compounds, about 540 (0.36%) showed an effect of 50% or more. This is one part of the list.

test system: Plasmodium falciparum; test: Primary screen in NF54 nanoGlo assay, in single point, at 2uM, 72h; a lower Z score goes with more inhibition; type: functional, Erythrocyte; details: timepoint 72 hour

Row | Structure (SMILES) | % Inhibition [%] | Z score
1 | COc1ccc(C(=O)N[C@H](C(=O)NC(C)(C)C)C(C)C)cc1 | -8 | 1.32
2 | CCOC(=O)c1ccc2nc(C)cc(Nc3ccc(Cl)cc3C)c2c1 | 19 | -1.72
3 | COC1(c2noc(-c3cc4c(s3)CCOC4)n2)CCCCC1 | -7 | 1.21
4 | C[C@H](NC(=O)c1ccncc1O)c1noc(Cc2ccccc2)n1 | -2 | 0.24
5 | Cc1ccc(N[C@H]2C[C@@H](C)Nc3ccc(C)cc32)cc1 | -3 | 0.62
6 | Cc1cc(-c2nc(CS(=O)(=O)NC3CC3)no2)n[nH]1 | -5 | 0.76
7 | Clc1ccc(CNc2nc(-c3cccs3)n[nH]2)cc1 | -40 | 4.7
8 | O=C(NCc1cccnc1N1CCOCC1)c1cccs1 | 4 | -0.48
9 | COc1cc(F)c(F)cc1NC(=O)NCCO[C@@H]1CCCCO1 | -1 | 0.12
10 | CCc1cccc(NC(=O)Cn2cnc3nc(N4CCOCC4)sc3c2=O)c1 | -11 | 1.79
11 | Oc1c([C@@H](c2ccccn2)N2CCCC2)ccc2cccnc12 | 36 | -6.9
12 | CCc1ccc(C(=O)N2C[C@H]3COCC[C@@]3(O)[C@@H]3COCC[C@@H]32)[nH]1 | -5 | 0.75
13 | CC(C)(C)c1ccc(C(=O)N2CCC([C@H]3CCNC3)CC2)nc1 | -8 | 1.13
14 | CCc1cnc(N2CCN(C(=O)c3ccnc(C4CC4)n3)CC2)s1 | -6 | 0.75
15 | CCCCNCc1cccn1-c1ccccc1 | -3 | 0.37
16 | Cc1cc(CN[C@@H](C)c2ccc3c(c2)OCCO3)c(C)n1-c1ccnn1C(C)C | 12 | -1.46
17 | COc1cc2ncc3c(-c4ccccc4)n[nH]c3c2cc1OC | 9 | -0.99
18 | COCc1ccc([C@@H]2CCCN2Cc2cnns2)o1 | -7 | 1.19
19 | Cc1ccc2[nH]c(CCNC(=O)[C@H]3CCCN(C(=O)N(C)C)C3)nc2c1 | -1 | 0.19
20 | CC(=O)N1CC2(CCN(c3cc(C)nc4ccccc34)CC2)C[C@H]1C(=O)O | -3 | 0.49
21 | Cn1cc(CNC(=O)c2cccc(S(=O)(=O)N3CCCOCC3)c2)cn1 | 10 | -2.02
22 | O=C(C[C@H]1CNCCO1)Nc1ccc(Oc2ccccc2)cc1 | -16 | 1.43

Row | Structure (SMILES) | % Inhibition [%] | Z score
23 | Cn1cc(CNC(=O)NCCC(=O)Nc2ccccc2)cn1 | 0 | -0.09
24 | OCc1cc(-c2cc3ccccc3s2)ccn1 | -16 | 2.32
25 | Cc1ccc2oc(CN(Cc3cc(F)ccc3F)C(=O)c3cccc(F)c3F)nc2c1 | -11 | 1.1
26 | O=C(c1cccc(Cl)c1)N(CCc1cccs1)C1CCOCC1 | -8 | 1.28
27 | COc1c(C)cnc(Cn2cc(-c3nnco3)ccc2=O)c1C | -30 | 3.07
28 | CC(C)c1ccc([C@@H](C)CC(=O)Nc2ccc[n+]([O-])c2)cc1 | -5 | 0.74
29 | CCCOc1ccc(-c2csc(NC(=O)c3occc3CS(=O)(=O)c3ccccc3)n2)cc1 | -5 | 0.76
30 | CN1CC2(C[C@H]1c1nc(-c3ccccc3)no1)CN(C(=O)c1ccncn1)C2 | -18 | 2.11
31 | Cc1ccc(-n2[nH]c(C(=O)N3CCc4ccnc(O)c4C3)cc2=O)cc1 | 8 | -0.85
32 | CN(Cc1cc(-c2ccccc2)n[nH]1)c1cc(C2CC(O)C2)nc(N)n1 (configuration not stated) | 7 | -1.1
33 | O=C(c1ccn2nnnc2c1)N(CCO)Cc1nccs1 | 1 | -0.17
34 | Cc1cc(C)n(NC(=O)c2cnc(C(C)C)nc2C)c(=O)c1 | -11 | 1.58
35 | COc1ccc2c(c1)N(S(=O)(=O)c1cnnn1C)CCC2 | -7 | 0.72
36 | CCc1cc(-c2cccc(C(N)=O)c2)nc(N(C)C)n1 | -6 | 1.17
37 | Nc1c(-c2ccccc2)nsc1C(=O)NCc1ccc(F)cc1 | 37 | -4.77
38 | O=C(O)C[C@H]1CCCCN1Cc1ccc2cc(Cl)ccc2n1 | -1 | 0.27
39 | O=C(NCC1(c2ccccc2)CC1)N1CCC[C@H]1c1ccncc1 | -7 | 1.3
40 | C[C@H](c1ccccc1)c1nc(-c2ccc(=O)[nH]c2)no1 | -3 | 0.52
41 | CCc1nc(C(=O)N(C)C2CCC(CC)CC2)co1 (configuration not stated) | -8 | 1.17
42 | COc1ccc(-c2nnc(NC(=O)c3ccc(Oc4ccccc4)cc3)o2)cc1 | 4 | -0.7
43 | O=c1ccc(S(=O)(=O)N2CCCCCC2)cn1Cc1ccc(Cl)cc1 | -9 | 1.85
44 | Cc1c(Cl)cccc1-n1ccnc(NC(=O)NCCc2ccccc2)c1=O | -11 | 1.46

Row | Structure (SMILES) | % Inhibition [%] | Z score
45 | C[C@H](NC(=O)CN1CCC2(CCC(=O)N(C3CC3)C2)CC1)c1ccccc1 | -1 | 0.18
46 | CCOc1ccc(-c2c(C)nn3c(O)c(NCCc4c[nH]c5ccccc45)c(C)nc23)cc1OCC | -3 | 0.5
47 | O=S(=O)(Cc1ccccc1F)N1CC[C@H](Oc2cnsn2)C1 | -10 | 1.84
48 | Cc1cc(NC(=O)c2ccco2)nnc1C | 5 | -0.8
49 | c1ccc(-c2cn3c(n2)c(-c2ccc4ccccc4n2)cc2ccccc23)cc1 | 76 | -4.16
50 | Cc1ccccc1CNc1nnc(-c2ccc(S(C)(=O)=O)cc2)o1 | -17 | 1.7
51 | Cc1nc2c(c(N3CCC(Oc4ccccc4C)CC3)n1)CNC2 | -2 | 0.28
52 | O=C(c1c[nH]c(C(F)(F)F)c1)N1CC[C@H](Nc2ncccn2)C1 | 5 | -0.72
53 | C[C@H]1[C@@H](N)CCCN1C(=O)[C@H]1C[C@@H]1c1ccccc1C(F)(F)F | -3 | 0.28
54 | CCS(=O)(=O)N[C@@H](C)c1ccccc1Br | -12 | 2.64
55 | C[C@H]1CCCCN1C(=O)Nc1ccc2sncc2c1 | -9 | 0.93
56 | N#Cc1cccc(OCc2cccc(C(=O)N3CCC[C@H](O)C3)c2)c1 | -12 | 1.91
57 | COc1n[nH]c(NC(=O)[C@H]2C[C@@H]2c2ccccc2Cl)c1C#N | -7 | 1.16
58 | COC1CCN(Cc2cn(Cc3ccn(-c4ccccc4)n3)nn2)CC1 | -13 | 2.41
59 | O=C(N[C@H]1CCN(Cc2noc(-c3ccccc3)n2)C1)c1ccn[nH]1 | -16 | 1.77
60 | Cc1nocc1NC(=O)CC1CC2CCC1C2 (configuration not stated) | -11 | 1.54
61 | C[C@H]1CN(Cc2ccccc2)Cc2c1nc(N)c(C#N)c2-c1ccco1 | 2 | -0.29
62 | C[C@](O)(CNC(=O)Nc1ccccc1)c1ccc(-c2ccccc2)cc1 | -5 | 0.81
63 | CC[C@@](C)(COc1ncccc1Cl)NC(=O)CCc1nc2c([nH]1)c(=O)[nH]c(=O)n2C | -4 | 0.54
64 | Cc1ccn(-c2cc(COC(=O)c3cccnc3)ccn2)n1 | 10 | -1.37
65 | COC1(C(F)(F)F)CN(C(=O)NC2CCC3(CC2)COC3)C1 | -1 | 0.11
66 | c1ccc(C(NCc2nnc(-c3ccco3)o2)c2ccccc2)cc1 | -2 | 0.47

Row | Structure (SMILES) | % Inhibition [%] | Z score
67 | Cc1nnc([C@H](C)N2CCC(C(=O)Nc3ccccc3)CC2)s1 | 0 | 0.06
68 | CC(C)n1nnnc1CN(C)OCc1ccccc1 | -3 | 0.46
69 | COc1ccc(CC(=O)Nc2cc(-c3ccco3)no2)cc1OC | -4 | 0.61
70 | COCCN1C(=O)[C@H]2CN(S(=O)(=O)c3ccccc3)C[C@H]2C1=O | -8 | 1
71 | CC(C)(C)c1noc(CCc2ncc[nH]2)n1 | -12 | 1.84
72 | Cc1nc(-c2ccco2)sc1CNS(=O)(=O)c1c(C)noc1C | 8 | -1.51
73 | CCc1noc(CN(C)C(=O)CCC(=O)N2CCCCCC2)n1 | 4 | -0.66
74 | CC[C@H](C)CN(C)C(=O)Nc1ccc(OC2CCOCC2)c(C)c1 | 1 | -0.06
75 | Cc1cnc(COCC(=O)N2CCC[C@H]2COc2ccccc2)o1 | -3 | 0.58
76 | CCn1cc(NS(=O)(=O)CCCCS(=O)(=O)NCC2CC2)cn1 | -5 | 0.68
77 | CCC1CCC(NCCCN2CCOCC2)CC1 (configuration not stated) | -4 | 0.62
78 | Cc1cc(CC(=O)NCc2nc3cccc(C)c3n2C)n[nH]1 | 2 | -0.32
79 | COc1ccc(C)cc1NCc1csc([C@@H]2CCCO2)n1 | -4 | 0.53
80 | CCc1ccc([C@H](C)NS(=O)(=O)c2cc3c(s2)CCN(C(C)=O)C3)cc1 | 4 | -0.68
81 | Cc1cc(-c2cccc(OC(C)C)c2)cnc1-n1cnnc1 | -12 | 2.34
82 | C[C@@H]1Oc2cc(S(=O)(=O)N3CCN(C(=O)c4cccs4)CC3)c(Cl)cc2NC1=O | -15 | 1.55
83 | COCCn1ccnc1C1CCN(c2nccs2)CC1 | -12 | 1.66
84 | O=C(NC[C@@H](c1ccco1)n1cccn1)c1cccc(F)c1 | 2 | -0.22
85 | Cc1oc2ncnc(NC(=O)c3ccc([C@H]4CCCOC4)cc3)c2c1C | 3 | -0.49
86 | COc1cccc(C2c3c(C)nn(-c4ccc(C)cc4)c3NC(=O)C2NC(=O)c2ccccc2)c1 (configuration not stated) | -18 | 1.81
